# Measurements from the supplement of paper PMC9446081.
# Among all 39,000 compounds or so, about 220 (0.56%) showed activity. The list shows a part of the results.
# Test system: Escherichia coli K-12 BW25113
# Experiment: relative growth (OD600 normalised to plate interquartile mean) (fraction); higher = less growth inhibition, active = 0.2 or less
# Details: 50 µM; LB; incubation time: overnight (16-24 h)
# 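Also: static incubation at 37 °C against the wild-type strain, values averaged over two biological replicates.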
row,SMILES,relative growth
1,CC(C)NC(=O)Nc1ccc2c(c1)C(=O)N([C@H](C)CO)C[C@H](C)[C@@H](CN(C)Cc1ccc(C(F)(F)F)cc1)OCCCC[C@@H](C)O2,inactive: 1.03
2,CC(C)NC(=O)N(C)C[C@@H]1Oc2c(NS(=O)(=O)c3cn(C)cn3)cccc2C(=O)N([C@@H](C)CO)C[C@@H]1C,inactive: 0.986
3,C[C@@H]1CN([C@H](C)CO)C(=O)Cc2cc(NC(=O)CCN3CCOCC3)ccc2O[C@H]1CN(C)C(=O)Nc1ccc2c(c1)OCO2,inactive: 1
4,C[C@@H]1CN([C@@H](C)CO)C(=O)c2cccc(NC(=O)CCCCCC(=O)Nc3ccccc3N)c2O[C@H]1CN(C)C(=O)Nc1ccc(F)cc1,inactive: 1.01
5,COCC#Cc1ccc([C@@H]2[C@H](CO)N3C(=O)CN(C(=O)c4cccnc4)C[C@@H]23)cc1,inactive: 1.03
6,C[C@@H]1CN([C@H](C)CO)C(=O)c2cc(NC(=O)Nc3ccc(C(F)(F)F)cc3)ccc2O[C@@H](C)CCCCO[C@H]1CN(C)Cc1ccc2c(c1)OCO2,inactive: 0.924
7,C[C@@H]1CCCCO[C@@H](CN(C)C(=O)CCC(F)(F)F)[C@@H](C)CN([C@H](C)CO)C(=O)c2cc(NC(=O)Nc3ccc(F)cc3)ccc2O1,inactive: 0.982
8,C[C@@H]1CN([C@H](C)CO)C(=O)CCCn2cc(nn2)CO[C@H]1CN(C)Cc1ccc2c(c1)OCCN2C,inactive: 1
9,COc1cc(F)c(F)c(Nc2ccc(I)cc2F)c1NS(=O)(=O)C1(C[C@H](O)CO)CC1,inactive: 1.03
10,COc1cc(OC)c(S(=O)(=O)N(C)Cc2ccccc2)cc1S(=O)(=O)N(C)Cc1ccccc1,inactive: 1.03
11,COc1cccc(S(=O)(=O)N(C)C[C@@H]2OCc3cn(nn3)CCCC(=O)N([C@H](C)CO)C[C@H]2C)c1,inactive: 0.963
12,CC1(C)SC2C(NC(=O)C(C(=O)[O-])c3ccsc3)C(=O)N2C1C(=O)[O-].[Na+].[Na+] (configuration not stated),inactive: 1.15
13,CN(C)CCCNC(=O)C[C@H]1CC[C@H]2[C@H](COc3ccc(NC(=O)c4ccccc4F)cc3C(=O)N2C)O1,inactive: 1.01
14,COc1ccc([Si](C)(C)[C@@H]2[C@@H](CCO)O[C@]3(C(=O)N(Cc4ccc(N5CCCCC5=O)cc4)c4ccccc43)[C@H]2C)cc1,inactive: 1
15,C[C@@H]1CN([C@@H](C)CO)C(=O)c2cccc(NC(=O)C3CCCCC3)c2O[C@H]1CN(C)Cc1ccc(C(F)(F)F)cc1,inactive: 0.946
16,O=C(C[C@@H]1CC[C@H]2[C@@H](COC[C@H](O)CN2C(=O)c2ccc3c(c2)OCO3)O1)NCCN1CCCC1,inactive: 1
17,C[C@H](C(=O)O)N1CCCCC1,inactive: 0.979
18,COc1ccc(NC(=O)Nc2ccc3c(c2)C(=O)N([C@H](C)CO)C[C@@H](C)[C@@H](CN(C)S(=O)(=O)c2ccc(F)cc2)OCCCC[C@@H](C)O3)cc1,inactive: 1
19,C[C@H](CO)N1C[C@H](C)[C@@H](CN(C)Cc2ccc(-c3ccccc3)cc2)Oc2ccc(NC(=O)c3ccncc3)cc2CC1=O,inactive: 0.993

row,SMILES,relative growth
1,COc1ccc(NC(=O)Nc2ccc3c(c2)C(=O)N([C@@H](C)CO)C[C@H](C)[C@H](CN(C)Cc2ccc(C(F)(F)F)cc2)OCCCC[C@@H](C)O3)cc1,inactive: 0.996
2,CCCC[C@@H](CC)COc1ccc(-c2nc(-c3ccc(OC)cc3)nc(-c3ccc(OC[C@@H](CC)CCCC)cc3O)n2)c(O)c1,inactive: 1.02
3,C[C@H](CO)N1C[C@H](C)[C@H](CN(C)S(=O)(=O)c2ccccc2)Oc2ccc(NS(C)(=O)=O)cc2C1=O,inactive: 0.998
4,C[C@H](CO)N1C[C@H](C)[C@@H](CN(C)S(=O)(=O)c2cn(C)cn2)Oc2c(NC(=O)C3CC3)cccc2C1=O,inactive: 1.01
5,O=C(C[C@H]1C[C@@H]2c3cc(NC(=O)Nc4ccc(C(F)(F)F)cc4)ccc3O[C@@H]2[C@H](CO)O1)NCc1ccc(Cl)cc1,inactive: 1.04
6,C[C@@H]1CCCCO[C@H](CN(C)C(=O)Cc2ccccc2)[C@H](C)CN([C@@H](C)CO)C(=O)c2cc(NC(=O)CCC(F)(F)F)ccc2O1,inactive: 0.99
7,CO[C@H]1CN(C)C(=O)c2ccc(NS(=O)(=O)CC(F)(F)F)cc2OC[C@H](C)N(C(=O)NC(C)C)C[C@@H]1C,inactive: 0.979
8,C[C@@H]1CN([C@H](C)CO)C(=O)c2cc(NC(=O)Cn3cnnn3)ccc2O[C@@H]1CN(C)Cc1ccccc1,inactive: 0.993
9,COc1ccc([Si](C)(C)[C@@H]2[C@@H](CC(=O)N3CCC[C@H]3CO)O[C@]3(C(=O)N(Cc4cccc(N5CCCCC5=O)c4)c4ccccc43)[C@H]2C)cc1,inactive: 1.02
10,O=C(C[C@@H]1CC[C@@H]2[C@H](COC[C@H](O)CN2S(=O)(=O)c2ccccc2)O1)N[C@H]1CCN(Cc2ccccc2)C1,inactive: 0.962
11,COc1ccc(S(=O)(=O)N(C)C[C@@H]2Oc3c(NS(=O)(=O)c4ccc(C)cc4)cccc3C(=O)N([C@H](C)CO)C[C@H]2C)cc1,inactive: 0.996
12,C[C@H](CO)N1C[C@H](C)[C@@H](CN(C)CC2CCCCC2)OCCCC[C@H](C)Oc2ccc(NS(=O)(=O)c3ccccc3)cc2C1=O,inactive: 0.982
13,Cc1noc(C)c1NC(=O)Nc1ccc2c(c1)C(=O)N([C@H](C)CO)C[C@H](C)[C@@H](CN(C)S(=O)(=O)c1cccs1)OCCCC[C@H](C)O2,inactive: 0.985
14,C[C@@H]1CN([C@@H](C)CO)C(=O)c2cc(NC(=O)Nc3cccc4ccccc34)ccc2O[C@H]1CN(C)C(=O)Nc1ccccc1,inactive: 0.994
15,C[C@@H]1CCCCO[C@H](CN(C)S(=O)(=O)c2ccc(F)cc2)[C@H](C)CN([C@@H](C)CO)C(=O)c2cc(NC(=O)c3ccccc3)ccc2O1,inactive: 1.03
16,O=C(O)[C@@H]1CCCC[C@@H]1C(=O)N1CCc2ccccc2[C@H]1CN1C(=O)c2ccccc2C1=O.O=C(O)[C@H]1CCCC[C@@H]1C(=O)N1CCc2ccccc2[C@H]1CN1C(=O)c2ccccc2C1=O,inactive: 1
17,C[C@H](CO)N1C[C@H](C)[C@@H](CN(C)C(=O)NC2CCCCC2)OCCCC[C@H](C)Oc2ccc(NC(=O)C3CCCCC3)cc2C1=O,inactive: 0.994
18,O=C(C[C@@H]1CC[C@@H]2[C@H](COC[C@@H](O)CN2C(=O)Nc2cc(Cl)cc(Cl)c2)O1)N1CCOCC1,inactive: 0.988
19,NCCCC[C@H](NC(=O)[C@@H]1CCCN1C(=O)[C@@H]1CSSC[C@H](N)C(=O)N[C@@H](Cc2ccccc2)C(=O)N[C@@H](Cc2ccccc2)C(=O)NC(CCC(N)=O)C(=O)N[C@@H](CC(N)=O)C(=O)N1)C(=O)NCC(N)=O (some centres not stated),inactive: 0.97

row,SMILES,relative growth
1,COCC(=O)Nc1ccc2c(c1)C(=O)N(C)[C@@H]1CC[C@H](CC(=O)N3CCc4ccccc4C3)O[C@H]1CO2,inactive: 0.995
2,CO[C@@H]1CN(C)C(=O)c2ccc(NS(=O)(=O)c3cn(C)cn3)cc2OC[C@H](C)N(CC2CC2)C[C@@H]1C,inactive: 1
3,COc1ccc(S(=O)(=O)N2C[C@H](O)COC[C@H]3O[C@H](CC(=O)NCCN4CCCCC4)CC[C@@H]32)cc1,inactive: 1
4,NCCC[C@@H](N)CC(=O)NC[C@H]1NC(=O)[C@@H](CO)NC(=O)[C@@H](N)CNC(=O)[C@H]([C@H]2CCN=C(N)N2)NC(=O)C(C=NC(N)=O)NC1=O (some centres not stated),inactive: 0.892
5,C[C@@H]1CN([C@H](C)CO)C(=O)c2cc(NC(=O)C3CC3)ccc2O[C@@H]1CN(C)Cc1ccc(-c2ccccc2)cc1,inactive: 1.01
6,C[C@H](CO)N1C[C@H](C)[C@@H](CN(C)CC2CC2)OCCCC[C@H](C)Oc2ccc(NC(=O)Nc3ccc(F)cc3)cc2C1=O,inactive: 0.987
7,C[C@@H]1CN([C@@H](C)CO)C(=O)Cc2cc(NC(=O)C3CC3)ccc2O[C@@H]1CN(C)C(=O)Nc1ccc(F)cc1,inactive: 0.956
8,COc1ccc(NC(=O)Nc2ccc3c(c2)C(=O)N([C@@H](C)CO)C[C@@H](C)[C@@H](CN(C)Cc2ccc(-c4ccccc4)cc2)O3)cc1,inactive: 1.08
9,C[C@@H]1CN([C@@H](C)CO)C(=O)Cc2cc(NS(C)(=O)=O)ccc2O[C@H]1CN(C)C(=O)NC1CCCCC1,inactive: 0.981
10,C[C@H]1CN([C@@H](C)CO)S(=O)(=O)c2ccc(C#Cc3ccccc3)cc2O[C@H]1CN(C)S(=O)(=O)c1ccccc1F,inactive: 1.04
11,CN(C)CCNC(=O)c1ccccn1,inactive: 1.03
12,OCc1ccccn1,inactive: 1.01
13,CN1CCCC1CCOC(C)(c1ccccc1)c1ccc(Cl)cc1.O=C(O)C=CC(=O)O (configuration not stated),inactive: 1.01
14,O=C(C[C@@H]1C=C[C@@H](NC(=O)c2cccc(F)c2)[C@@H](CO)O1)NCCN1CCCC1,inactive: 0.997
15,Cc1ccc(S(=O)(=O)Nc2cccc3c2O[C@H](CN(C)S(=O)(=O)c2cccs2)[C@@H](C)CN([C@@H](C)CO)C3=O)cc1,inactive: 1
16,C[C@@H]1CN([C@H](C)CO)C(=O)Cc2cc(NC(=O)Cc3cn(C)c4ccccc34)ccc2O[C@H]1CN(C)Cc1ccc(-c2ccccc2)cc1,inactive: 1.02
17,C[C@@H]1CN([C@@H](C)CO)C(=O)c2cc(NC(=O)Nc3ccc(F)cc3)ccc2O[C@@H](C)CCCCO[C@H]1CN(C)Cc1ccc2c(c1)OCO2,inactive: 0.993
18,COCC#Cc1ccc([C@H]2[C@@H](CO)N3C(=O)CN(C(=O)c4cccnc4)C[C@H]23)cc1,inactive: 0.997
19,C[C@@H]1CN([C@@H](C)CO)C(=O)Cc2cc(NS(C)(=O)=O)ccc2O[C@H]1CN(C)Cc1ccc(C(F)(F)F)cc1,inactive: 0.972
